According to the supplement of paper PMC7826260:
This is one part of the list. Each Rep nickase domain was tested in vitro on the same pool of single strands (3 µM enzyme, 1 h, 37 °C); shown is the middle of each 90-letter strand. Values are log2 of uncut reads against the no-enzyme pool; strong cutting gives strongly negative numbers. There is no active / inactive call. Reads are scaled to the total; values above 0 arise when much of the pool is cut.

System: T1, Rep nickase domain of tomato golden mosaic virus
T1 sequence (residues 1-124 of Rep, tag left off): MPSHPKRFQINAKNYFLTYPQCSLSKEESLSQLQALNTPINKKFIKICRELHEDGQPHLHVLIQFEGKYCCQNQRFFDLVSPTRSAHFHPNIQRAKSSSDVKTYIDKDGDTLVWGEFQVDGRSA
Experiment: uncleaved DNA left, log2 of reads against the no-enzyme library (log2 ratio); higher = less cleavage (more negative = more Rep cleavage of the k-mer); sequences stand for … in CTCGTCCG…ACCGGAGA
Procedure: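 A pool of 90-nt single-stranded DNAs with seven random bases just before the constant AC of the nick site (name = the seven bases) was cut by 3 µM recombinant His6-SUMO-tagged Rep nickase domain (300 nM DNA, 50 mM HEPES pH 8.0, 50 mM NaCl, 1 mM MnCl2, 1 h, 37 °C, three replicates). Uncut DNA was amplified and sequenced.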

Sequence | uncleaved DNA left (log2)
AGTTTTA | 0.134
ATACGAA | 0.0776
AGATAAT | 0.0208
AGATCCG | 0.0121
TACCTTC | 0.00766
GAAGTAT | 0.096
TCGAACT | -0.125
TCACCCA | -0.133
AGAAGAT | 0.141
GTATCTT | -0.0391
CGGGTGT | 0.0712
CGGGGCG | -0.109
AGCGTTG | 0.0491
GCCCACG | 0.167
TGCTATT | -0.307
TTCCTCC | 0.0256
GTACACC | -0.0219
GCTCATG | 0.128
AAGTCCG | -0.0323
ACACCCC | -0.0188

Sequence | uncleaved DNA left (log2)
ATCCGGA | -0.0462
GTTGTAA | 0.214
AGAAATT | 0.0733
AGATGCT | -0.146
TCTAGTC | -0.0149
GTGCTGG | 0.0943
GCAATGG | 0.13
GCGCCGG | -0.00799
AGGGCAG | 0.00647
CATCCAT | -0.0536
TTCTTCG | -0.236
ATGACCG | -0.0357
GCGGTTT | 0.1
CCAAAAC | 0.011
GCATACT | -0.176
GTGTTAC | -0.0542
TCCAATC | 0.126
GACGTCT | -0.141
CGGAAGC | 0.103
ACTCGGT | 0.122
